# Results: the supplement of paper PMC12217912
# The list shows a part of the results. Sequences were assembled here from the parent chain. Inactive controls read about 0.05.
# B1: TEV protease; numbered along this chain (parent)
# chain: MGESLFKGPRDYNPISSSICHLTNESDGHTTSLYGIGFGPFIITNKHLFRRNNGTLVVQSLHGVFKVKDTTTLQQHLVDGRDMIIIRMPKDFPPFPQKLKFREPQREERICLVTTNFQTKSMSSMVSDTSCTFPSGDGIFWKHWIQTKDGQCGSPLVSTRDGFIVGIHSASNFTNTNNYFTSVPKNFMELLTNQEAQQWVSGWRLNADSVLWGGHKVFMVKPEEPFQPVKEATQL
# Variants of: B1
# Experiment: raw area under fraction-flipped curve 0-4 h after induction (AUC4h, not background-subtracted), DNA-recorder readout of cleavage of the substrate (dimensionless); higher = more cleavage of the substrate by the protease variant
# Conditions: temperature: 34 °C; time window: 0-4 h after rhamnose induction
# 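Further: Bxb1 expression induced with 0.2% (w/v) L-rhamnose at OD600 near 0.5, cultures sampled hourly, flipped fraction per protease–substrate barcode pair counted by paired-end Illumina sequencing.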
variant,measurement,value
R106P,area with substrate ENLYFFS,0.0556
same,area with substrate ENLYFHS,0.0701
same,area with substrate ENLYFIS,0.08
same,area with substrate ENLYFKS,0.0421
same,area with substrate ENLYFMS,0.0657
same,area with substrate ENLYFPS,0.0855
same,area with substrate ENLYFRS,0.0743
same,area with substrate ENLYFSS,0.0803
same,area with substrate ENLYFTS,0.0747
same,area with substrate ENLYFVS,0.0681
same,area with substrate ENLYFWS,0.0601
same,area with substrate ENLYFYS,0.0803
R106K,area with substrate ENLYFDS,0.0618
same,area with substrate ENLYFES,0.0491
same,area with substrate ENLYFHS,0.0562
same,area with substrate ENLYFLS,0.0533
same,area with substrate ENLYFPS,0.0619
same,area with substrate ENLYFRS,0.0589
Q197Y,area with substrate ENLYFES,0.0672
same,area with substrate ENLYFFS,0.115
same,area with substrate ENLYFIS,0.0544
same,area with substrate ENLYFKS,0.0698
same,area with substrate ENLYFMS,0.0634
same,area with substrate ENLYFRS,0.0586
V200G,area with substrate ENLYFDS,0.0597
same,area with substrate ENLYFES,0.0611
same,area with substrate ENLYFFS,0.0726
same,area with substrate ENLYFIS,0.0628
same,area with substrate ENLYFKS,0.0729
same,area with substrate ENLYFPS,0.0644
same,area with substrate ENLYFTS,0.0375
V200K,area with substrate ENLYFDS,0.0626
same,area with substrate ENLYFIS,0.0508
V200Q,area with substrate ENLYFCS,0.0559
same,area with substrate ENLYFIS,0.0632
same,area with substrate ENLYFNS,0.0693
same,area with substrate ENLYFPS,0.0544
same,area with substrate ENLYFYS,0.0494
I110E,area with substrate ENLYFFS,0.0626
same,area with substrate ENLYFMS,0.0728
same,area with substrate ENLYFTS,0.0578
G214C,area with substrate ENLYFDS,0.078
same,area with substrate ENLYFFS,0.078
same,area with substrate ENLYFGS,0.0585
same,area with substrate ENLYFIS,0.0556
same,area with substrate ENLYFMS,0.0861
K216P,area with substrate ENLYFCS,0.074
same,area with substrate ENLYFIS,0.0568
same,area with substrate ENLYFKS,0.0482
same,area with substrate ENLYFNS,0.0426
same,area with substrate ENLYFWS,0.0567
K216M,area with substrate ENLYFES,0.0558
same,area with substrate ENLYFFS,0.0719
same,area with substrate ENLYFIS,0.0665
same,area with substrate ENLYFKS,0.0467
same,area with substrate ENLYFMS,0.0531
same,area with substrate ENLYFNS,0.0701
same,area with substrate ENLYFYS,0.0472
K216N,area with substrate ENLYFCS,0.0627
same,area with substrate ENLYFDS,0.0598
same,area with substrate ENLYFES,0.0572
same,area with substrate ENLYFHS,0.0618
same,area with substrate ENLYFIS,0.0587
same,area with substrate ENLYFKS,0.0581
same,area with substrate ENLYFLS,0.0479
same,area with substrate ENLYFMS,0.0649
same,area with substrate ENLYFNS,0.0427
same,area with substrate ENLYFPS,0.0599
same,area with substrate ENLYFRS,0.0709
same,area with substrate ENLYFSS,0.0636
E223Q,area with substrate ENLYFES,0.0601
same,area with substrate ENLYFIS,0.0633
same,area with substrate ENLYFKS,0.0597
same,area with substrate ENLYFPS,0.0505
same,area with substrate ENLYFSS,0.0489
same,area with substrate ENLYFTS,0.0437
same,area with substrate ENLYFVS,0.0108
P134T,area with substrate ENLYFES,0.0679
same,area with substrate ENLYFFS,0.0724
same,area with substrate ENLYFGS,0.0524
same,area with substrate ENLYFIS,0.0447
same,area with substrate ENLYFKS,0.0583
same,area with substrate ENLYFLS,0.0436
same,area with substrate ENLYFMS,0.0611
same,area with substrate ENLYFNS,0.0663
same,area with substrate ENLYFPS,0.0555
same,area with substrate ENLYFRS,0.0565
same,area with substrate ENLYFSS,0.0499
same,area with substrate ENLYFTS,0.0587
same,area with substrate ENLYFWS,0.053
same,area with substrate ENLYFYS,0.0655
T72Q,area with substrate ENLYFES,0.0795
same,area with substrate ENLYFFS,0.0659
same,area with substrate ENLYFIS,0.0748
same,area with substrate ENLYFMS,0.0758
same,area with substrate ENLYFPS,0.0552
same,area with substrate ENLYFTS,0.0649
same,area with substrate ENLYFVS,0.0388
same,area with substrate ENLYFWS,0.0535
same,area with substrate ENLYFYS,0.0589
M88T,area with substrate ENLYFES,0.0404
same,area with substrate ENLYFKS,0.0538
same,area with substrate ENLYFPS,0.0587
same,area with substrate ENLYFRS,0.0581
same,area with substrate ENLYFVS,0.0482
same,area with substrate ENLYFWS,0.0582
L22G,area with substrate ENLYFES,0.0527
same,area with substrate ENLYFFS,0.0627
same,area with substrate ENLYFIS,0.0323
same,area with substrate ENLYFKS,0.0461
same,area with substrate ENLYFLS,0.0375
same,area with substrate ENLYFMS,0.0416
same,area with substrate ENLYFNS,0.0553
same,area with substrate ENLYFPS,0.0305
same,area with substrate ENLYFRS,0.0267
same,area with substrate ENLYFTS,0.0223
D128Q,area with substrate ENLYFES,0.0485
same,area with substrate ENLYFFS,0.0769
same,area with substrate ENLYFHS,0.0281
same,area with substrate ENLYFIS,0.0563
same,area with substrate ENLYFKS,0.065
same,area with substrate ENLYFMS,0.0668
same,area with substrate ENLYFNS,0.0647
same,area with substrate ENLYFPS,0.0663
same,area with substrate ENLYFRS,0.0703
same,area with substrate ENLYFSS,0.0695
same,area with substrate ENLYFTS,0.0536
same,area with substrate ENLYFVS,0.0619
same,area with substrate ENLYFWS,0.054
same,area with substrate ENLYFYS,0.0628
A207I,area with substrate ENLYFCS,0.0553
same,area with substrate ENLYFDS,0.0661
same,area with substrate ENLYFFS,0.0515
same,area with substrate ENLYFGS,0.0656
same,area with substrate ENLYFKS,0.0706
same,area with substrate ENLYFMS,0.0661
same,area with substrate ENLYFNS,0.053
same,area with substrate ENLYFPS,0.0449
same,area with substrate ENLYFRS,0.0483
same,area with substrate ENLYFSS,0.0544
same,area with substrate ENLYFVS,0.0677
same,area with substrate ENLYFWS,0.038
same,area with substrate ENLYFYS,0.0621
G153R,area with substrate ENLYFFS,0.0528
same,area with substrate ENLYFLS,0.0498
E3Y,area with substrate ENLYFES,0.0671
same,area with substrate ENLYFFS,0.0769
same,area with substrate ENLYFIS,0.0512
same,area with substrate ENLYFNS,0.0789
same,area with substrate ENLYFPS,0.0626
same,area with substrate ENLYFTS,0.071
same,area with substrate ENLYFVS,0.0514
H29F,area with substrate ENLYFES,0.0428
same,area with substrate ENLYFFS,0.0614
same,area with substrate ENLYFHS,0.0588
same,area with substrate ENLYFIS,0.0531
same,area with substrate ENLYFKS,0.0683
same,area with substrate ENLYFMS,0.0834
same,area with substrate ENLYFNS,0.0061
same,area with substrate ENLYFRS,0.0595
